The campaign covered roughly 48,000 compounds. About 120 (0.25%) were called active. Another 4% or so got no clear call; they are omitted. Calls follow the shape of the dose curve; as a rule, active = well fitted activation curve with a large enough effect; inconclusive = small, poorly fitted or top-dose-only effect, or another doubt; inactive = no such curve, though single readings can be large or run the other way. The list shows a part of the results.

Results on 61 molecules are retold here after PubChem BioAssay AID1508624 (National Center for Advancing Translational Sciences (NCATS), 2021).

The experiment in a line: Primary qHTS for Identification of Small Molecule Activators of Huntingtin-Antisense Promoter Activity. Also: nearly all actives have a fitted effect of over 55% in size. To be noted: HEK293 HTT-AS promoter firefly luciferase reporter, 24 h; series mostly up to 57.5 µM; activity change, positive = activation: at the top concentration. In outline:
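Luminescence was read after Dual-Glo reagent and a 10 min room-temperature incubation. Values were normalized to vehicle (0% activity) and zero RLU (-100% activity). Reporter HEK293 cells had been exposed to compounds (up to 57.5 uM final) for 24 h.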
With `OC(C#CCN1CCCC1)(c1ccccc1)c1ccccc1`, the “activity change, positive = activation” value was inactive: -9.42%. As for `CCOC(=O)c1scc(-c2ccccc2)c1S(=O)(=O)N1CCN(c2ccccc2OC)CC1`, the “activity change, positive = activation” value is inactive: -32.2%. For `COc1ccc(NC(=O)c2oc3ccc(S(=O)(=O)N(C)C4CCCCC4)cc3c2C)cc1` the value was inactive: -37.3%; for `CCOC(=O)c1ccc(NC(=O)CSc2nc3c([nH]c4ccccc43)c(=O)n2C)cc1`, inactive: -35%; for `Cc1cn2c(=O)cc(COc3ccccc3NC(=O)c3ccc(Cl)cc3)nc2s1`, inactive: -11.7%. For `Cc1ccccc1-c1noc(-c2cc(-c3ccc(F)cc3)n[nH]2)n1` the value was inactive: 26.1%; for `Cc1ccc(NC(=O)C2CCC(CNS(=O)(=O)c3ccc4c(c3)CCCC(=O)N4)CC2)c(C)c1` (stereo unspecified), inactive: -7.42%; for `CCCCc1nc2ccccc2n1CC(=O)N(COCC)c1c(C)cccc1CC`, inactive: -26.9%. Consider `Cc1cc(C)cc(NC(=O)C2CCN(S(=O)(=O)c3ccc4c(c3)oc(=O)n4C)CC2)c1`, for which the “activity change, positive = activation” value was inactive: -9.2%. For `COc1cc(NC(=O)c2ccc(-n3cnc4cccnc43)cc2)cc(OC)c1` the value was inactive: -5.95%. For `COc1ccc(/C=C/C(=O)Nc2ccc3nc(N4CCCCC4)cc(C)c3c2)cc1OC` the value was inactive: -15.8%; for `Cc1ccc(S(=O)(=O)N(CC(=O)Nc2ccc3c(c2)OCO3)c2ccc(C)c(Cl)c2)cc1`, inactive: -34.6%. For `CCN(CCN(C)C)C(=O)C1CCN(S(=O)(=O)c2c(C)noc2/C=C/c2ccccc2F)CC1` the value was inactive: -47.7%; for `Cc1cc(C)c(NC(=O)Cn2nnc(-c3nc(-c4ccccc4)no3)c2N)c(C)c1`, inactive: 0.603%; for `CCCOC(=O)c1ccc(O)cc1`, inactive: 34.8% [at 116 µM, percent change from vehicle, -100% = no light]. For `Cc1cc(C)c2c(n1)SCCN2C(=O)Nc1ccc(C(=O)Nc2ccc(C(C)C)cc2)cc1`, the “activity change, positive = activation” value was inactive: -36.5%. For `CCN(CC)c1ccc2cc(-c3nc(-c4cc(OC)c(OC)c(OC)c4)no3)c(=O)oc2c1` the value was inactive: -1.07%. For `COC(=O)c1ccccc1NC(=O)Cn1c(=O)n(CCCC(=O)NCc2ccccc2OC)c(=O)c2ccccc21` the value was inactive: -10.8%; for `Cc1ccc(C)c(NC(=O)C(c2ccccc2)N2Cc3ccccc3C2=O)c1` (stereo unspecified), inactive: -18.3%; for `CCOc1ccc(-n2nc(CO)c(C(=O)NCc3cccc(OC)c3)n2)cc1`, inactive: 18.6%. Turning to `CC(=O)c1ccc(NC(=O)c2nc3nc(C)cc(C(F)F)n3n2)cc1`, the “activity change, positive = activation” value is inactive: -1.75%. For `Cc1cc(C)cc(-n2ccn(CC(=O)Nc3ccccc3F)c(=O)c2=O)c1`, the “activity change, positive = activation” value is inactive: -5.1%. Regarding `COc1cc2cc(CNc3ccccc3)c(=O)n(CC(=O)Nc3cc(C)cc(C)c3)c2cc1OC`, the “activity change, positive = activation” value is inactive: -20.7%.

Regarding `O=C(CCC1N=C2c3ccccc3N=C(SCc3ccc(F)cc3)N2C1=O)NC1CCCCC1` (stereo unspecified), the “activity change, positive = activation” value was inactive: -5.89%. Take `Cc1ccc(-c2cc(C(F)(F)F)nn2-c2ccc(S(N)(=O)=O)cc2)cc1`: the activity change, positive = activation entry was “inactive”. Consider `COc1ccccc1NC(=O)C1CCN(c2cnccn2)CC1`, for which the “activity change, positive = activation” value was inactive: -8.03%. For `CC(=O)N1CCCc2cc(S(=O)(=O)N3CCN(c4cccc(C(F)(F)F)c4)CC3)ccc21` the value was inactive: -29.7%; for `CSc1ncc(C(=O)Nc2cc(Cl)ccc2C)c(-c2ccccc2)n1`, inactive: -21.2%; for `COc1ccc(C)cc1NC(=O)C1CCCN(S(=O)(=O)c2ccc3c(c2)oc(=O)n3C)C1` (stereo unspecified), inactive: -23.8%. For `CC(=O)Nc1ccc(S(=O)(=O)N2CCN(c3ccccc3)CC2)cc1` the value was inactive: -24.8%. For `Cc1cccc(Cn2c(SCc3ccc(C(=O)NCCc4ccccc4)cc3)nc3cccnc32)c1` the value was inactive: -8.86%.

On to `Cc1ccc(SCc2nc(-c3ccc(C(=O)NCc4ccccc4Cl)cc3)oc2C)cc1`, for which the “activity change, positive = activation” value was inactive: -24%. For `CC(=O)Nc1cccc(NC(=O)C2(c3cccs3)CCOCC2)c1` the value was inactive: -10.3%; for `COc1cccc(-c2nnc3n(CCc4ccccc4)c(=O)c4ccccc4n23)c1O`, inactive: -23.9%; for `O=C(O)C1=CC(O)C(O)[C@H](O)C1` (stereo partly specified), inactive: -10.2%. Take `CCOC(=O)CC(=O)CSc1nc2ccccc2c(=O)n1CCc1ccccc1`: the “activity change, positive = activation” value was inactive: -4.95%.

For `COc1cccc(CNC(=O)CN(c2ccc(C(C)C)cc2)S(=O)(=O)c2c(C)n[nH]c2C)c1`, the “activity change, positive = activation” value was inactive: -21.3%. For `Cn1c(=O)c(=O)n(C)c2cc(N3CCCC3)c(NC(=O)c3ccc(C(C)(C)C)cc3)cc21` the value was inactive: -16.3%; for `Cn1cc(S(=O)(=O)N2CCCC2)cc1C(=O)Nc1ccc(C(F)(F)F)cc1`, inactive: -38.3%; for `COc1ccccc1-c1nnc(C2CCN(S(=O)(=O)c3ccccc3)CC2)o1`, inactive: 9.33%. For `O=C(Nc1ccc(NC(=O)c2ccc(Br)cc2)c(Cl)c1)c1ccc(Br)cc1` the value was inactive: -22.5%. As to `COc1ccc(CNc2oc(COc3cccc(C)c3)nc2C#N)cc1`, the “activity change, positive = activation” value was inactive: -8.59%. For `COc1ccc(C(=O)Nc2nc3ccc(S(=O)(=O)N4CCCC4)cc3s2)cc1` the value was inactive: -10.2%; for `CCc1nn(CC(=O)N2CCN(c3cccc(C(F)(F)F)c3)CC2)c(=O)c2cc3occc3n12`, inactive: -7.35%; for `COc1cccc2cc(-c3nnc(-c4ccc(Cl)cc4)o3)c(=O)oc12`, inactive: -9.28%.

For the molecule `CCCCCn1c(=O)[nH]c2cc(C(=O)Nc3ccc(OC)c(OC)c3)ccc2c1=O`, the “activity change, positive = activation” value is inactive: -9.8%. In the case of `COc1cccc(N2CCN(C(=O)Cn3cnc4onc(-c5ccc(F)cc5)c4c3=O)CC2)c1`, the “activity change, positive = activation” value is inactive: -37.7%.

For the molecule `COc1cccc(-c2nc(CS(=O)(=O)CC(=O)NCCCN3CCN(C)CC3)c(C)o2)c1`, the “activity change, positive = activation” value was inactive: 4.9%. For `CC(C)CCOc1ccc(Oc2nc(N(C)C)nc(N(C)C)n2)nn1` the value was inactive: -34.5%; for `COc1ccc2c(CNCc3cccs3)c(C(=O)O)n(Cc3ccc(F)cc3Cl)c2c1`, inactive: -38.9%.

Take `COc1ccccc1-n1ncc2c(=O)[nH]c(SCC(=O)Nc3cccc(F)c3)nc21`: the “activity change, positive = activation” value was inactive: -18.9%. For `CCOc1ccccc1N(C)C(=O)Cn1cnc2onc(-c3ccc(F)cc3)c2c1=O` the value was inactive: -6.06%; for `CCOc1ccc(C(=O)c2oc3ccccc3c2NC(=O)c2cc(-c3ccccc3)on2)cc1`, inactive: -12.9%; for `Cc1ccc(NC(=O)C(Cc2ccccc2)n2cccc2)c(C)c1` (stereo unspecified), inactive: -27.4%. With `CCCCCn1c(=N)c(S(=O)(=O)c2ccccc2)cc2c(=O)n3cccc(C)c3nc21`, the “activity change, positive = activation” value was inactive: -8.93%. Turning to `Cc1cc(Nc2ccc(C(C)C)cc2)nc(-n2nc(C)cc2C)n1`, the “activity change, positive = activation” value is inactive: -18.3%. For `CC(C)Oc1cccc(C(=O)Nc2ccc(-c3nc4cc(Cl)cc(Cl)c4o3)cc2)c1` the value was inactive: -17.3%. For `Cc1cccc2sc(N(Cc3cccnc3)C(=O)Cc3ccccc3)nc12` the value was inactive: -25%. As for `Cc1ccc(NC(=O)CSc2nc(-c3cccs3)cc(C(F)(F)F)n2)cc1C`, the “activity change, positive = activation” value was inactive: -34.9%. For `COc1cc(-c2noc(-c3ccc(NC4CCCCC4)c([N+](=O)[O-])c3)n2)cc(OC)c1OC` the value was inactive: -6.82%; for `Cc1cccc(NC(=O)CSc2cn(CC(=O)N3CCOCC3)c3ccccc23)c1`, inactive: 4.26%.
